Test [1] concerns the target human TGFB1 protein (R&D Systems, 240-B/F) (human, UniProt P01137 partial chain). As to the kind of experiment: cell-based or functional assay.
Test [2] deals with T1, Human TGFB1 (Novoprotein, CA59) (human, UniProt P01137 partial chain, biotinylated with EZ-Link Sulfo-NHS-LC-Biotin in the BLI experiment of Example 19; not biotinylated in the ELISA of Example 16).
T1 construct: bought reagent; also called human TGFB1 protein; biotinylated human TGFB1
Briefly: BLI (Octet), biotinylated hTGFB1 on SA sensor, 1:1 global fit.

Test [3] has as its target T1, Human TGFB1 (Novoprotein, CA59). As to the kind of experiment: ELISA, coated human TGFB1. In general terms: In an ELISA, binding on a coated surface is turned into a signal by an enzyme label.
Test [4] concerns the target T2, human PD-L1 on CHO-K1 cells (CHO-K1/hPD-L1, Nanjing Genscript, M00543) (human, UniProt Q9NZQ7).
T2 construct: whole, on cells; also called CHO-K1 cells overexpressing human PD-L1; human PD-L1 on the cell surface
Briefly: flow cytometry competition: biotin-hPD-1 binding to CHO-K1/hPD-L1 cells. (In general: In flow cytometry, cells or beads pass a laser one at a time.)

Test [5] concerns the target human PD-L1 on Hep3B cells co-expressing human PD-L1 and OS8 (human, UniProt Q9NZQ7). Briefly: cell-based or functional assay.
In test [6] the target is T2, human PD-L1 on CHO-K1 cells …. Briefly: flow cytometry on CHO-K1/hPD-L1 cells.

Consider three molecules from US20260258137A1 (HARBOUR BIOMED SHANGHAI, published 2026).

T1 sequence (P01137 279-390 limits assumed): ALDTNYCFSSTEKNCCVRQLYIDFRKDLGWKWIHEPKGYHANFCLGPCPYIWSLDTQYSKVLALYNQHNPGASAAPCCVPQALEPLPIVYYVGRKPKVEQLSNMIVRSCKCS

B1: PR001599 (other)
heavy: EVQLLESGGGLVQPGGSLRLSCAASGFTFSSYIMMWVRQAPGKGLEWVSSIYPSGGITFYADTVKGRFTISRDNSKNTLYLQMNSLRAEDTAVYYCARIKLGTVTTVDYWGQGTLVTVSSASTKGPSVFPLAPSSKSTSGGTAALGCLVKDYFPEPVTVSWNSGALTSGVHTFPAVLQSSGLYSLSSVVTVPSSSLGTQTYICNVNHKPSNTKVDKRV[letters of human IgG1 Fc omitted]GGGGSGGGGSGGGGSGGGGSGIPPHVQKSVNNDMIVTDNNGAVKFPQLCKFCDVRFSTCDNQKSCMSNCSITSICEKPQEVCVAVWRKNDENITLETVCHDPKLPYHDFILEDAASPKCIMKEKKKPGETFFMCSCSSDECNDNIIFSEEYNTSNPD
light: QSALTQPASVSGSPGQSITISCTGTSSDVGGYNYVSWYQQHPGKAPKLMIYDVSNRPSGVSNRFSGSKSGNTASLTISGLQAEDEADYYCSSYTSSSTRVFGTGTKVTVLGQPKANPTVTLFPPSSEELQANKATLVCLISDFYPGAVTVAWKADGSPVKAGVETTKPSKQSNNKYAASSYLSLTPEQWKSHRSYSCQVTHEGSTVEKTVAPTECS
notes: also called M7824; bintrafusp alfa analog
In general, Kd refers to the concentration at which binding is half-saturated. Read a high Kd as a looser complex. Usually EC50 stands for the midpoint of the concentration-response curve. A high value points to weaker potency. On to B1, for which, in test [1], the “IC50 (nM), Smad SEAP reporter in HEK-Blue TGFB cells” value came to 0.009 nM. In test [2], binding was put at a Kd of 104 pM. Also, in test [3], a half-maximal effect (EC50) was put at 1550 pM and the “OD Maximum value” came out at 1.81 OD.

B2: PR001487 (other)
heavy: EVQLVESGGGLVQPGGSLRLSCAASGFTFSSYWMSWVRQAPGKGLEWVANIKQEGSEKYYVDSVKGRFTISRDNAKNSLYLQMNSLRAEDTAVYYCARDRAVAGAFDIWGQGTMVTVSSASTKGPSVFPLAPSSKSTSGGTAALGCLVKDYFPEPVTVSWNSGALTSGVHTFPAVLQSSGLYSLSSVVTVPSSSLGTQTYICNVNHKPSNTKVDKKV[letters of human IgG1 Fc omitted]GGGSGGGGSGGGGSTIPPHVQKSVNNDMIVTDNNGAVKFPQLCKFCDVRFSTCDNQKSCMSNCSITSICEKPQEVCVAVWRKNDENITLETVCHDPKLPYHDFILEDAASPKCIMKEKKKPGETFFMCSCSSDECNDNIIFSEEYNTSNPD
light: DIQMTQSPSTLSASVGDRVTVTCRASQSIYIWLAWYQQKPGKAPNLLIYKASSLETGVPSRFSGSGSGTEFTLTISSLQPDDFATYYCQQYYGSSRTFGQGTKVEIKRTVAAPSVFIFPPSDEQLKSGTASVVCLLNNFYPREAKVQWKVDNALQSGNSQESVTEQDSKDSTYSLSSTLTLSKADYEKHKVYACEVTHQGLSSPVTKSFNRGEC
notes: anti-PD-L1 / TGFBRII bifunctional fusion protein: PR000265 heavy chain (hIgG1) - (G4S)3 - human TGFBRII extracellular region 23-159 as first polypeptide; light chain as second polypeptide
Broadly, the IC50 is the concentration at which inhibition is half-maximal. Read a low IC50 as greater potency. On to B2, for which the IC50 in test [4] was determined as 216 pM. In test [5], the “EC50 (nM), PD-1 reporter gene cell line” value is 0.056 nM and the “Maximum fluorescence value (RLU)” value was found to be 3600 RLU. In test [3], the EC50 came out at 1080 pM and the “OD Maximum value” came out at 1.74 OD. In test [6], this molecule had an EC50 of 314 pM and an MFI maximum value of 53000 MFI.

B3: PR001901 (other)
heavy: EVQLVESGGGLVQPGGSLRLSCAASGFTFSSYWMSWVRQAPGKGLEWVANIKQEGSEKYYVDSVKGRFTISRDNAKNSLYLQMNSLRAEDTAVYYCARDRAVAGAFDIWGQGTMVTVSSASTKGPSVFPLAPSSKSTSGGTAALGCLVKDYFPEPVTVSWNSGALTSGVHTFPAVLQSSGLYSLSSVVTVPSSSLGTQTYICNVNHKPSNTKVDKKV[letters of human IgG1 Fc omitted]SGGSGIPPHVQKSVNNDMIVTDNNGAVKFPQLCKFCDVRFSTCDNQKSCMSNCSITSICEKPQEVCVAVWRKNDENITLETVCHDPKLPYHDFILEDAASPKCIMKEKKKPGETFFMCSCSSDECNDNIIFSEEYNTSNPD
light: B2 light
notes: anti-PD-L1 / TGFBRII bifunctional fusion protein: PR000265 heavy chain (hIgG1) - (G2S)2 - human TGFBRII extracellular region 24-159
In test [4], B3 yielded an IC50 of 260 pM. For the same molecule, in test [3], the EC50 was found to be 1290 pM and the “OD Maximum value” was determined as 1.8 OD. In test [6], this molecule registered an EC50 of 488 pM and an MFI maximum value of 46800 MFI.
